Measured values reported in PubChem BioAssay AID504832 (National Center for Advancing Translational Sciences (NCATS), 2011).
Values joined by “and” are separate entries in the source; they are usually repeats but may differ in a detail not shown here. Identical values can stand only once. Hit rate of the full screen: of about 310,000 compounds, about 18,000 (5.8%) were called active. The inconclusive results got no clear call from the source; some entries with a clear call stand among them for comparison. The call rests on the fitted dose curve; in most records, active means well fitted inhibition curve with a large enough effect; inconclusive means small, poorly fitted or top-dose-only effect, or another doubt; inactive means no such curve, though single readings can be large or run the other way. A potency beside an inconclusive call is a rough fit, not a confirmed value.

experiment: Primary qHTS for delayed death inhibitors of the malarial parasite plastid, 48 hour incubation; details: P. falciparum luciferase growth in erythrocytes; series mostly up to 28.7 µM; activity change, negative = inhibition: at the top concentration
Method in brief: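 Firefly luciferase activity from engineered P. falciparum reports growth; inhibitors lower the luminescent signal. Cultures contained 2% hematocrit erythrocytes at 0.1% final parasitemia.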
On the % scale 0 is the no-effect control and ±100 the full control effect; potency means the concentration at half of the fitted maximal effect; tags describe the fitted curve by direction and shape.

Which Potency does the source give for `OCc1ccc2c(c1)c(-c1ccc3c(c1)OCCO3)c(-c1ccccc1)n2-c1ccccc1` here?
Its Potency is inconclusive: 11.7 µM [inhibitor, partial curve].

For `O=C(C1CCN(S(=O)(=O)c2cccc3nsnc23)CC1)N1CC=C(c2ccccc2)CC1`, which Potency is on record?
The Potency was inconclusive: 7.38 µM [inhibitor, partial curve, poor fit].

Which Potency does the source give for `Cn1c(Cc2cccs2)nnc1SCC(=O)Nc1ccccc1F` here?
The Potency was inconclusive: 10.4 µM [inhibitor, partial curve, poor fit].

For `Cc1ccc(S(=O)(=O)N2c3ccccc3OCC2c2ccccc2)cc1` (stereo not drawn), which Potency is on record?
Its Potency is active: 2.62 µM.

For `NC(=O)Nn1c(CCC(=O)O)ccc1-c1ccc(F)cc1`, which “activity change, negative = inhibition” value is on record?
Its value is inactive: 4.39%.

Which Potency does the source give for `CN1c2ccc([N+](=O)[O-])cc2CC2(C(=O)NC(=O)N(c3ccccc3)C2=O)C1c1ccccc1` (stereo not drawn) here?
Its Potency is active: 3.29 µM.

For `COc1ccc(C2CC(c3ccc(OC)cc3OC(C)=O)=NN2C(=O)c2ccccc2)cc1` (stereo not drawn), which activity change, negative = inhibition is on record?
Its activity change, negative = inhibition is inactive: 0.243% [at 0.00184 µM].

With `CCN(CC)Cc1c(O)ccc2c1O/C(=C\C=C\c1ccccc1)C2=O` as the compound, how does the Potency read?
The Potency was inconclusive: 1.85 µM [inhibitor, full curve].

Which “activity change, negative = inhibition” value does the source give for `N#C/C(=C\c1ccc(OCC(N)=O)cc1)c1ccccc1` here?
The value was inactive: 88.1%.

For `CCN(c1ccccc1)S(=O)(=O)c1ccc(C(=O)N(CCCN(C)C)c2nc3c(C)cccc3s2)cc1`, which Potency is on record?
The Potency was active: 14.7 µM.

With `CCCCN(CC)CCNC(=O)C1c2cc(OC)c(OC)cc2C(=O)N2CCc3ccccc3C12` (stereo not drawn) as the compound, how does the Potency read?
The Potency was inconclusive: 1.04 µM [inhibitor, full curve].

Which “activity change, negative = inhibition” value does the source give for `Cc1ccc(C)c(OCCn2nnc3ccccc32)c1` here?
Its value is inactive: -1.29%.

With `CC(C)C(c1nnnn1Cc1ccc(F)cc1)N1CCN(C(=O)c2ccco2)CC1` (stereo not drawn) as the compound, how does the Potency read?
The Potency was inconclusive: 18.5 µM [inhibitor, single point].

Which Potency does the source give for `Cc1ccc(S(=O)(=O)N2CCC(C(=O)N3CCC(C(=O)NCC4CCCO4)CC3)CC2)cc1` (stereo not drawn) here?
The Potency was inconclusive: 9.28 µM [inhibitor, single point].

With `CC(C)(C)C(=O)Nc1ccc(C(=O)N/N=C/c2ccccc2OC(=O)c2ccccc2)cc1` as the compound, how does the Potency read?
Its Potency is inconclusive: 4.15 µM [inhibitor, partial curve].

For `CCCCN(C(=O)COC(=O)c1ccc(C=O)cc1)c1c(N)n(CCC)c(=O)[nH]c1=O`, which Potency is on record?
The Potency was inconclusive: 18.5 µM [inhibitor, single point].

For `COc1ccccc1NC(=S)NCCC(c1ccccc1)c1ccccc1`, which “activity change, negative = inhibition” value is on record?
The value was inactive: -16.2%.

For `CCOC(=O)c1[nH]c(C)c(C(=O)OCC(=O)NCc2ccc(OC)cc2)c1C`, which Potency is on record?
The Potency was inconclusive: 18.5 µM [inhibitor, single point].

For `O=C(c1ccc(-n2cnnn2)cc1)N(C1CCCCC1)C1CCCCC1`, which Potency is on record?
Its Potency is inconclusive: 0.415 µM [inhibitor, partial curve, poor fit].

Which “activity change, negative = inhibition” value does the source give for `O=C(Nc1cccc(F)c1)C1CCCN(c2cnccn2)C1` (stereo not drawn) here?
The value was inactive: 5.75%.

Which “activity change, negative = inhibition” value does the source give for `O=C(CCc1nnc(-c2ccc3c(c2)OCO3)o1)NC(c1ccccn1)C(F)(F)F` (stereo not drawn) here?
The value was inactive: 60%.

With `O=C(CS(=O)CC(=O)N(c1ccccc1)C(C(=O)NC1CCCCC1)c1ccco1)Nc1ccc(F)cc1` (stereo not drawn) as the compound, how does the Potency read?
The Potency was inconclusive: 13.1 µM [inhibitor, single point].

For `Nc1nonc1-n1nnc(C(=O)N/N=C/c2cccnc2)c1CSc1ccc(Cl)cc1`, which Potency is on record?
Its Potency is inconclusive: 18.5 µM [inhibitor, single point].

With `COC(=O)c1ccc(NC(=O)CCN2CCN(c3ccccc3)CC2)cc1` as the compound, how does the Potency read?
The Potency was inconclusive: 2.33 µM [inhibitor, partial curve].

Which Potency does the source give for `Cc1cc(=O)[nH]c(N/N=C/c2c(C)nn(-c3ccccc3)c2Cl)n1` here?
Its Potency is active: 4.65 µM.

For `COc1cccc(NC(=O)C(c2ccccc2)N2CCN(c3ccccn3)CC2)c1` (stereo not drawn), which Potency is on record?
Its Potency is inconclusive: 13.1 µM [inhibitor, partial curve, poor fit].

With `Cc1nc2cc(NC(=O)N3c4ccccc4CC3C)ccc2o1` (stereo not drawn) as the compound, how does the “activity change, negative = inhibition” value read?
Its value is inactive: 138%.

For `O=C(NCC1CCCCC1)c1ccc(F)c(S(=O)(=O)N2CCOCC2)c1`, which Potency is on record?
The Potency was inconclusive: 10.4 µM [inhibitor, single point].

With `CN(C)S(=O)(=O)c1cc(C(=O)Nc2ccccc2C(=O)NC2CC2)ccc1Cl` as the compound, how does the Potency read?
Its Potency is inconclusive: 11.7 µM [inhibitor, single point].

With `O=C(c1cccc(NS(=O)(=O)c2ccc(F)cc2)c1)N1CCN(c2ccccc2)CC1` as the compound, how does the Potency read?
The Potency was inconclusive: 11.7 µM [inhibitor, single point].

For `COc1ccc(COc2cccnc2N)cc1`, which “activity change, negative = inhibition” value is on record?
The value was inactive: 105%.

For `CCn1c(C)nc2cc(-c3nc4n(n3)Cc3ccccc3-4)ccc21`, which Potency is on record?
Its Potency is active: 0.185 µM.

For `O=c1[nH][nH]c2nc(C(F)(F)F)cc(C(F)(F)F)c12`, which “activity change, negative = inhibition” value is on record?
The value was inactive: 36.6%.

For `CCC(=O)N1c2ccc(S(=O)(=O)N3CCN(c4cc(C)ccc4C)CC3)cc2CC1C` (stereo not drawn), which Potency is on record?
The Potency was inconclusive: 10.4 µM [inhibitor, single point].

With `c1coc(CNc2ncnc3[nH]ncc23)c1` as the compound, how does the Potency read?
The Potency was inconclusive: 2.94 µM [inhibitor, partial curve, poor fit].

With `COc1cccc(CNc2ccc(N3CCC(C)CC3)cc2)c1OC` as the compound, how does the Potency read?
Its Potency is active: 1.85 µM.

With `CCCCCOC(=O)c1[nH]c2c(c1C)C(=O)CC(c1ccco1)C2` (stereo not drawn) as the compound, how does the Potency read?
Its Potency is active: 0.657 µM.

For `C/C(=N\Nc1nnc(C)c(=O)[nH]1)C(=O)O`, which Potency is on record?
Its Potency is inconclusive: 4.15 µM [inhibitor, partial curve, poor fit].

Which Potency does the source give for `CC1=CC(=O)c2ccccc2C1=O` here?
Its Potency is inconclusive: 19 µM [inhibitor, single point] and inconclusive: 11.7 µM [inhibitor, single point] and inconclusive: 18.5 µM [inhibitor, single point].

With `CCOC(=O)c1c(C)[nH]c(C(=O)OCC(=O)Nc2ccccc2)c1C` as the compound, how does the “activity change, negative = inhibition” value read?
The value was inactive: -8.49%.

Which Potency does the source give for `COc1ccc(/C=C/C(=O)Nc2cccc(S(=O)(=O)NC3=NCCCCC3)c2)cc1OC` here?
The Potency was inconclusive: 13.1 µM [inhibitor, partial curve].

For `NC(=O)C1CCN(c2nc(-c3cccc4sc5ccccc5c34)cs2)CC1`, which Potency is on record?
The Potency was inconclusive: 18.5 µM [inhibitor, single point].

With `CCOC(=O)N1CCN(C(=O)/C(=C\c2ccc(SC)cc2)NC(=O)c2ccccc2)CC1` as the compound, how does the Potency read?
Its Potency is inconclusive: 16.5 µM [inhibitor, partial curve, poor fit].

Which Potency does the source give for `CCCCn1c(N)c(N(CCOC)C(=O)COC(=O)COc2cc(C)ccc2Cl)c(=O)[nH]c1=O` here?
The Potency was inconclusive: 18.5 µM [inhibitor, single point].

Which Potency does the source give for `CN(C(=O)CO/N=C/c1ccc(Cl)cc1)c1ccccc1` here?
Its Potency is inconclusive: 13.1 µM [inhibitor, partial curve, poor fit].

Which Potency does the source give for `CCc1ccc(CN(C(=O)c2cccs2)C2CCS(=O)(=O)C2)cc1` (stereo not drawn) here?
The Potency was inconclusive: 18.5 µM [inhibitor, single point].

With `COc1ccc(C(CC(=O)N2CCCC2)c2c(O)cc(OC)cc2OC)cc1` (stereo not drawn) as the compound, how does the “activity change, negative = inhibition” value read?
The value was inactive: 0.802%.

For `Oc1ccc(/C=N/Nc2nc(-c3ccccc3F)nc3ccccc23)c(O)c1`, which Potency is on record?
The Potency was inconclusive: 11.7 µM [inhibitor, single point].

Which Potency does the source give for `CC(C)c1ccccc1NC(=S)NC(C)c1ccccc1` (stereo not drawn) here?
Its Potency is inconclusive: 7.38 µM [inhibitor, partial curve, poor fit].

For `CCOC(=O)c1cnc2c(Cl)cc(Cl)cc2c1NCCCN1CCOCC1`, which Potency is on record?
Its Potency is inconclusive: 8.28 µM [inhibitor, partial curve].

For `COc1cccc(N(C(=O)Cn2nnc(-c3cccs3)n2)C(C(=O)NC(C)C)c2ccc(C)o2)c1` (stereo not drawn), which Potency is on record?
The Potency was inconclusive: 0.147 µM [inhibitor, full curve, poor fit].

For `O=C(NCCS(=O)(=O)N1CCN(c2ccccc2F)CC1)c1ccc(F)c(F)c1`, which Potency is on record?
The Potency was inconclusive: 4.15 µM [inhibitor, single point].

With `COc1ccc(CN2C(=O)c3oc4ccccc4c(=O)c3C2c2ccc(O)c(OC)c2)cc1` (stereo not drawn) as the compound, how does the Potency read?
The Potency was inconclusive: 6.57 µM [inhibitor, partial curve].

With `CCOC(=O)C1=C(C)Nc2sc(C(=O)c3ccc(OC)cc3)c(N)c2C1c1ccc(C(=O)OC)cc1` (stereo not drawn) as the compound, how does the Potency read?
The Potency was active: 7.38 µM.

For `CC(NC(=O)CN(C)S(=O)(=O)c1ccc(F)cc1)C1CC2CCC1C2` (stereo not drawn), which “activity change, negative = inhibition” value is on record?
The value was inactive: -23.8%.

With `CCOC(=O)c1c(NC(=O)CSc2nnc(CNc3ccc(OC)cc3)n2C)sc(C)c1C` as the compound, how does the Potency read?
Its Potency is inconclusive: 8.28 µM [inhibitor, partial curve, poor fit].

For `CC1CCCCC1NC(=O)c1ccc(CNc2c(N3CCCC3)c(=O)c2=O)cc1` (stereo not drawn), which “activity change, negative = inhibition” value is on record?
Its value is inactive: -1.09%.

For `O=C1/C(=C/c2ccc(N3CCOCC3)o2)SC(=Nc2ccccc2)N1CCc1c[nH]c2ccccc12`, which Potency is on record?
The Potency was active: 9.28 µM.

For `Cc1ccc(-c2cc(C(F)F)nc(S(C)(=O)=O)n2)cc1`, which “activity change, negative = inhibition” value is on record?
Its value is inactive: -21.8%.

Which “activity change, negative = inhibition” value does the source give for `COc1ccc(/C=N/NC(=O)CNC(=O)c2cccs2)cc1` here?
Its value is inactive: 45.5%.

Which Potency does the source give for `Cc1cc(C(C)(C)C)cc(C)c1COC(=O)CN1C(=O)NC2(CCCC2)C1=O` here?
The Potency was inconclusive: 11.7 µM [inhibitor, single point].

Which “activity change, negative = inhibition” value does the source give for `O=C(CCc1ccccc1)N=C1SC2CS(=O)(=O)CC2N1c1cccc(F)c1` (stereo not drawn) here?
The value was inactive: 15%.

With `O=C(COc1ccc(Br)cc1)Nc1ccc(Cc2ccncc2)cc1` as the compound, how does the Potency read?
Its Potency is inconclusive: 3.7 µM [inhibitor, partial curve, poor fit].

For `O=c1c2ccccc2[nH]c(=S)n1CCCN1CCN(c2ccccc2F)CC1`, which activity change, negative = inhibition is on record?
Its activity change, negative = inhibition is inactive: 8.45% [at 0.00184 µM].

Which “activity change, negative = inhibition” value does the source give for `O=C(O)c1ccc(NC(=O)c2cc3ccccc3o2)cc1` here?
The value was inactive: 46.1%.

With `O=C(CSc1nc2ccccc2c(=O)n1CC1CCCO1)Nc1ccc(F)cc1` (stereo not drawn) as the compound, how does the Potency read?
Its Potency is inconclusive: 13.1 µM [inhibitor, single point].

With `CN(C)/C=C/C(=O)c1ccc(Cl)cc1` as the compound, how does the “activity change, negative = inhibition” value read?
Its value is inactive: -18.4%.

With `C#CCOCCOCCOCCNc1nc(N2CCN(C(=O)[C@H]([C@@H](C)CC)n3cc([C@@H](N)Cc4ccc(O)cc4)nn3)CC2)nc(N2CCN(C(=O)[C@H](Cc3cc4ccccc4[nH]3)n3cc([C@@H](N)CC(C)C)nn3)CC2)n1` as the compound, how does the Potency read?
Its Potency is inconclusive: 10.4 µM [inhibitor, single point].
